Paper PMC4336329 (PLoS ONE, 2015)
The campaign covered roughly 310,000 compounds. About 2,200 (0.71%) showed an effect of 50% or more. Effects have a minus sign here. The list shows a part of the results.

These compounds were tested against human ether-à-go-go-related gene (hERG) potassium channel (human, UniProt Q12809) (assay: primary screen, population patch clamp on CHO cells stably expressing hERG).
Chain of human ether-à-go-go-related gene (hERG) potassium channel (Q12809 whole entry, looked up): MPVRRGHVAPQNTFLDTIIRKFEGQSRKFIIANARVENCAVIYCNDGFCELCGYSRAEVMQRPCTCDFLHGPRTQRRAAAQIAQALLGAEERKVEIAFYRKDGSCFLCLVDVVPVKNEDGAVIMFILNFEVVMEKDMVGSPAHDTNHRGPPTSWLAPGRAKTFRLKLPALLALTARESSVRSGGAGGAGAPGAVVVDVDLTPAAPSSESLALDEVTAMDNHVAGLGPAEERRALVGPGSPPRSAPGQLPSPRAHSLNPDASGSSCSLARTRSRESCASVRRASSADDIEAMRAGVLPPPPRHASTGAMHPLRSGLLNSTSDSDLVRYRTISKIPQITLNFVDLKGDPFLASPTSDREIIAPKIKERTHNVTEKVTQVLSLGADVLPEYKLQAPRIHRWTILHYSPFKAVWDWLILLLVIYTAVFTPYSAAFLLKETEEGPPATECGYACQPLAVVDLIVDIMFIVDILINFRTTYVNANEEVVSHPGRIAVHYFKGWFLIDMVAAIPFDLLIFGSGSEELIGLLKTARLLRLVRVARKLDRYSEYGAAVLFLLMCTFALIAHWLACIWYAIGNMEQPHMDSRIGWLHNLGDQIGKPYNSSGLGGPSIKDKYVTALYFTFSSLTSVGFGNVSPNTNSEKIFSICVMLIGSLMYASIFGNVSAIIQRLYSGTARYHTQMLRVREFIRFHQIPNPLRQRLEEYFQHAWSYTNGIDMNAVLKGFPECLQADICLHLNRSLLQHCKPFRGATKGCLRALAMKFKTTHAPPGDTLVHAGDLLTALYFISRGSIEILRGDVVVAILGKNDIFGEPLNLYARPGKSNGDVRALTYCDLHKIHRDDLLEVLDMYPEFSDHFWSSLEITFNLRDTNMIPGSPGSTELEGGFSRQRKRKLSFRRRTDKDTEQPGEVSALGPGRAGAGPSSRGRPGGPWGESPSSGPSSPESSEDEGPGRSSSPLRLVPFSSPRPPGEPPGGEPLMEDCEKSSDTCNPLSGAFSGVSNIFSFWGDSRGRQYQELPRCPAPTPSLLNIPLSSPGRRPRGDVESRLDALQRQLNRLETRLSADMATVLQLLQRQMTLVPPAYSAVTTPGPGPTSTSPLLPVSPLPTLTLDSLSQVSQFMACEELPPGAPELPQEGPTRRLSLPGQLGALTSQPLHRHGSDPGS

Compound	hERG current change (%, negative = inhibition) at 1uM [%]
CC(=O)N1CCN(Cc2nc3cc(NC(=O)Nc4ccccc4)ccc3n2C)CC1	15.5
Br.C=CCN1C(c2ccccc2)=CS/C1=C(/C#N)c1nnc(N2CCOCC2)n1-c1ccccc1	13
CCCCCCOc1ccc(C(=O)O)cc1C#N	12.2
Cc1cc(C(=O)OCC(=O)N2CC(C)OC(C)C2)c2ccccc2n1 (stereo not shown)	-15.2
O=C(/C=C1\NC2(CCCC2)Cc2ccccc21)C(=O)N/N=C/c1ccccc1O	17.3
CCC(C)[C@H](NC(=O)OC(C)(C)C)C(=O)N/N=C/c1ccc2cc(OC)ccc2n1 (stereo partly shown)	7.31
CC1(C(=O)NC2CCCC2)CCC(=O)N1Cc1cccs1 (stereo not shown)	4.68
CC(C)CC(=O)NC(=S)Nc1ccc(S(=O)(=O)N2CCCC2)cc1	15.8
O=C(CSc1nc(=O)n2ccccc2n1)NCc1ccccc1Cl	16.3
CC(C)c1nnc(NC(=O)C2CCN(C(=O)c3ccco3)CC2)s1	11.8
Cc1cc(C(=O)CSc2cccc[n+]2[O-])c(C)n1-c1ccc(Br)cc1	9.28
Cn1cnnc1SCC(=O)NNC(=O)COc1ccc(Br)cc1	10.1
C=CCn1c(CNC(=O)c2ccco2)nnc1SCC(=O)c1ccccc1	9.27
COc1ccc(C(CN(C)C)C2(O)CCCCC2)cc1.Cl (stereo not shown)	3.87
Cc1cccc(C2=NNC(=O)C(c3ccc(Cl)cc3)C2)c1 (stereo not shown)	7.5
c1ccc(C2=Nn3c(nnc3-c3cccs3)SC2)cc1	13.7
CN(C(=S)NC(=O)c1ccccc1)c1c(N)n(Cc2ccccc2)c(=O)[nH]c1=O	4.5
Cc1ccccc1CSc1ncc(C#N)c(N)n1	2.17
Cc1ccc(C)c(N2C(=O)CC(Cc3ccc(Cl)cc3)C2=O)c1 (stereo not shown)	9.48
Cc1nn(CC(=O)NC(C)C)c(C)c1[N+](=O)[O-]	8.06
CN(C)c1cccc(N=C2C=C(N3CCOCC3)CC(C)(C)C2)c1	-24.1
CCN(CC(=O)NCc1cccs1)S(=O)(=O)c1ccc(C(C)C)cc1	-2.78

Compound	hERG current change (%, negative = inhibition) at 1uM [%]
Cc1cccc(NC(=O)CSc2nc3ccccc3c3nc(CCc4c(C)n[nH]c4C)nn23)c1	10.7
Cc1nnc(SCC(=O)N/N=C/c2ccc(-c3ccc(C)c(Cl)c3)o2)s1	1.3
Cc1ccc(-n2c(SCC(=O)NCCN3C(=O)CSC3=O)nnc2-c2cccc(C)c2)cc1	8.25
Cc1cccc(-n2nc3c(c2NC(=O)CCC2CCCCC2)CS(=O)C3)c1C (stereo not shown)	-5.52
O=C(CSCc1ccc(Cl)cc1Cl)Nc1ccccc1C(=O)Nc1ccc(C(=O)O)cc1	11.5
COc1cccc(-c2nc(CS(=O)(=O)CC(=O)NC3CCC(C)CC3)c(C)o2)c1 (stereo not shown)	-2.03
COC(=O)CNC(=O)COC(=O)c1cc(SC)ccc1Cl	12.3
Cc1ccc2c(c1)N(C(=O)CCC(=O)NC1CCCCCC1)CC(C)O2 (stereo not shown)	6.39
CCOC(=O)c1nc(S(C)(=O)=O)ncc1Cl	11.6
Cc1cccc(NC(=O)C2CCN(S(=O)(=O)c3ccc4c(c3)OCCCO4)CC2)n1	8.88
O=C(Nc1nc2nc(-c3ccccc3)cc(-c3ccccc3)n2n1)c1ccco1	-0.705
Br.CCSC1=NCN(CCCC(=O)O)CN1	9.63
CCC1Oc2ccc(C)cc2N(CC(=O)NCC2CCCO2)C1=O (stereo not shown)	9.88
CCCCn1c(N)c(N(C)C(=O)c2ccccc2Oc2ccccc2)c(=O)[nH]c1=O	17.5
NS(=O)(=O)c1ccc(CCNC(=O)CNC(=O)Cc2cccc3ccccc23)cc1	17
CCCCn1c(N)c(N(CCOC)C(=O)COC(=O)CCOc2ccccc2C)c(=O)[nH]c1=O	16.5
CCCCOc1c(Br)cc(/C=C2\N=C(C)OC2=O)cc1OCC	8.93
CCOc1ccc(N(CC(=O)Nc2cccc(OC)c2)S(C)(=O)=O)cc1	9.02
O=C(O)c1ccccc1P(=O)(c1ccccc1)c1ccccc1	16.1
COc1ccc(N2CCN(C(=O)c3ccc(CNS(=O)(=O)c4cc(C)ccc4C)cc3)CC2)cc1	0.552
COc1ccc(-c2cc(OC(=O)c3ccc(F)cc3)c3c(C)oc(C)c3c(=O)c2)cc1	11.3
Cc1onc(-c2c(F)cccc2Cl)c1C(=O)NCCCN1CCOCC1	-3.84

Compound	hERG current change (%, negative = inhibition) at 1uM [%]
O=C(CCCCC(=O)NCCc1ccccc1)NCCc1ccccc1	13.6
NS(=O)(=O)c1ccc(CCNC(=O)NC23CC4CC(CC(C4)C2)C3)cc1	6.76
CCNC(=S)Nc1ccc(-c2nc3ccccc3[nH]2)cc1	4.42
COc1ccc(OC)c(Nc2nc(-c3cccs3)cs2)c1	12.3
CCSC(=S)Nc1c(C)n(C)n(-c2ccccc2)c1=O	13
COc1ccc(OCc2nn3c(-c4ccco4)nnc3s2)cc1	-11.1
CCNC(=O)C(C)Sc1ccc(Cl)cc1 (stereo not shown)	5.45
N/C(=N\c1nc(CSc2nc3ccccc3s2)cc(=O)[nH]1)Nc1ccc(F)cc1	10.8
Cc1ccnc(N2C(=O)OC(C)(C)C2(C)O)c1 (stereo not shown)	-0.922
COc1ccc(NC(=O)NC2CCCc3ccccc32)cc1OC (stereo not shown)	11.1
O=C1CCc2cc(S(=O)(=O)N3CCC(C(=O)NCc4ccccn4)CC3)ccc2N1	15.8
CCCS(=O)(=O)c1c(S(=O)(=O)CCC)c2c3ccccc3ccn2c1C(N)=O	2.06
Cc1ccc2c(c1)sc1ncc(NC(=O)c3ccc(F)cc3)c(=O)n12	11.7
NC(=NCCc1c[nH]c2ccccc12)NS(=O)(=O)c1ccc2ccccc2c1	8.94
COCc1cc(=O)[nH]c(SCC(=O)N2CCOCC2)n1	14.4
COc1cccc(CN2CCNC(=O)C2CC(=O)NCCN2CCOCC2)c1OC (stereo not shown)	7.74
COc1ccc(C(=O)N=c2sc3c(C)ccc(OC)c3n2C)cc1	9.31
CO/N=C(\C)c1ncc(C(F)(F)F)cc1N1CCOCC1	19
O=C(Nc1ccc(Cl)c(C(F)(F)F)c1)C1CCCN(S(=O)(=O)c2cnc[nH]2)C1 (stereo not shown)	-11.1
Cc1cc(NC(=O)c2noc3c2CCCC3)n(-c2ccccc2)n1	-13.5
O=C(Nc1cccnc1)c1ccc(Cl)cc1[N+](=O)[O-]	10.1
O=C(Oc1c(-c2ccco2)oc2ccccc2c1=O)c1cccnc1	16.2

Compound	hERG current change (%, negative = inhibition) at 1uM [%]
COc1cc2c(cc1NC(=O)CSc1ccc(C)cc1)oc1ccccc12	-0.95
Cc1ccc(C)c(C(C)NC(=O)CC#N)c1 (stereo not shown)	11.3
COc1ccc(Cc2nnc(SCC(=O)Nc3ccc(N4CCOCC4)cc3)o2)cc1	14.1
CCOC(=O)C1CCN(C(=O)COC(=O)c2ccccc2C(=O)c2ccc(Cl)cc2)CC1	0.212
Cc1csc(=NC(=O)c2ccccc2)n1Cc1ccco1	5.65
Nc1nc2ncc(CNc3ccc(C(=O)N[C@@H](CCC(=O)O)C(=O)O)cc3)nc2c(=O)[nH]1	10.7
CCc1nc(C)cc(N)c1OCc1ccccc1.Cl.O	-13.8
CCN(Cc1ccccc1)S(=O)(=O)c1c(C(=O)N2CCCC2)c(C)n(C)c1C	-4.63
O=C(COc1ccc(-c2ccccc2)cc1)N1CCN(C(=O)c2cccs2)CC1	-8.55
CC(/C=N/NC(=O)c1c(Br)cnn1C)=C\c1ccccc1	3.59
COc1cc(C(=O)NC(=S)N(C)Cc2ccccc2)cc(OC)c1OC	6.94
C/C(=N/OC(=O)c1c(F)cccc1F)c1nccs1	7.45
NCCc1nnc(SCC(=O)Nc2ccc(Br)cc2)o1	11.4
Cc1cccc(OCCCn2c(=O)oc3ccc(C)cc32)c1	17.9
O=c1[nH]c2cccc(Cl)c2n(CCNc2ncc(C(F)(F)F)cc2Cl)c1=O	4.52
COc1ccc(NC(=O)Cn2c(-c3ccc(OC)cc3)cn(-c3ccc(C)cc3)c2=O)cc1	14.7
O=C(c1ccoc1)N1CCC2(CC1)Oc1ccc(Cl)cc1C(=O)C21CC(c2ccccc2)=NO1 (stereo not shown)	10
Cc1ccc(-c2cc(-c3ccc4c(c3)OCO4)c(C#N)c(N)n2)o1	4.17
c1ccc(-c2csc3ncnc(NCCCN4CCOCC4)c23)cc1	2.19
O=c1c2ccccc2nc(-c2ccc([N+](=O)[O-])cc2)n1-c1ccccc1	4.72
C=CCC1c2cccc(C(=O)O)c2C(=O)N1c1cccc(OC)c1 (stereo not shown)	11.5
O=c1cc(-c2ccccc2)[nH]c2ccc(F)cc12	12.7
